In PubChem BioAssay AID1963576 (National Center for Advancing Translational Sciences (NCATS), 2024):
In all, about 46,000 compounds went through this assay and about 60 (0.1%) were called active. The inconclusive results got no clear call from the source; some entries with a clear call stand among them for comparison. The call rests on the fitted dose curve; in most records, active means well fitted inhibition curve with a large enough effect; inconclusive means small, poorly fitted or top-dose-only effect; inactive means no such curve, though single readings can be large or run the other way. Potencies of inconclusive entries are left out as doubtful fits.

experiment: Primary qHTS assay for Inhibitors of ovarian cancer metastasis using an organotypic tumor microenvironment (TME) model.; further: nearly all actives have a fitted effect of over 65% in size;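 on Potency: count of GFP cancer cells still attached after washing and fixation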;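 on activity change, negative = inhibition: plate controls were DMSO wells for no effect and tomatine positive control wells for full effect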; details: SKOV3ip1-GFP adhesion/invasion on 3D omental model, fluorescence; activity change, negative = inhibition: at 45.8 µM (top of the series); series mostly up to 45.8 µM
How it was run: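 qHTS, 4-pt dose (0.36-46 umol/L); SKOV3ip1-GFP, 1,200 cells/well, no FBS; primary omental fibroblast/mesothelial co-culture 48 h pre-grown; 2 h RT + 16 h 37 C; PBS wash, 4% PFA; GFP count 488/509 nm.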
Potency means the concentration at half of the fitted maximal effect; tags describe the fitted curve by direction and shape.

| SMILES | outcome | Potency | activity change, negative = inhibition |
| --- | --- | --- | --- |
| CCCCN(CCCC)S(=O)(=O)c1ccc(NC(=O)c2c(-c3ccccc3)noc2C)cc1 | inactive | – | – |
| CC(C)(C)c1ccc(C(=O)Nc2ccc3nc(SCC(=O)N4CCCC4)sc3c2)cc1 | inactive | – | – |
| Cc1nn(-c2ccccc2)c2c1N(CCCC(=O)NCc1ccc(OC(C)C)cc1)C(=O)CS2 | – | inconclusive [inhibitor, single point] | – |
| O=C(c1ccc(C(=O)N2CCC(N3CCCC3)CC2)c(Nc2ccccc2)c1)N1CCC(N2CCCC2)CC1 | – | – | inactive: -1.23% |
| COc1ccccc1-c1cc(C(=O)Nc2c(C)nn(Cc3ccc(Cl)cc3)c2C)no1 | – | inconclusive [inhibitor, single point] | – |
| Cc1ccc(Cn2cc(S(=O)(=O)c3ccccc3)c(=O)c3cc(F)c(N4CCOCC4)cc32)cc1 | – | – | inactive: -2.76% |
| Cc1ccccc1NC(=O)CSc1ncc2c(n1)-c1ccccc1N(C)S2(=O)=O | – | – | inactive: -9.48% |
| COc1ccc(Nc2cc(C(=O)NCCCN(C)Cc3ccccc3)c3ccccc3n2)cc1OC | – | inconclusive [inhibitor, single point] | – |
| CCC1=Nc2cc(C(=O)NCCc3ccccc3)ccc2Sc2ccc(Cl)cc21 | – | inconclusive [inhibitor, single point] | – |
| CCc1cc2c(cc3c(=O)n(CC(=O)NCc4cccc(Cl)c4)nc(CC)n32)s1 | – | inconclusive [inhibitor, single point] | – |
| COc1ccc(-c2onc(C)c2C)cc1S(=O)(=O)N(C)Cc1ccco1 | – | inconclusive [inhibitor, single point] | – |
| CC(=O)Nc1cc(NC(C)=O)cc(-c2nc3ccccc3[nH]2)c1 | – | inconclusive [inhibitor, single point] | – |
| CCN(CC)CCNC(=O)c1ccc2c(c1)sc1nc(-c3ccc(F)cc3)cn12 | – | inconclusive [inhibitor, single point] | – |
| COc1cc(OC)cc(C(=O)Nc2ccc3nc(N4CCCCC4)cc(C)c3c2)c1 | – | inconclusive [inhibitor, single point] | – |
| CCC1CCCCN1CCCNC(=O)c1cc2c(Cl)nc3ccccc3c2s1 (configuration not stated) | – | inconclusive [inhibitor, single point] | – |
| CC(C)(C)C1CCc2oc3ccc(NS(=O)(=O)c4cc(Cl)ccc4Cl)cc3c2C1 (configuration not stated) | – | inconclusive [inhibitor, single point] | – |
| CCOC(=O)c1ccc(N2C(=O)c3n[nH]c(-c4cccs4)c3C2c2cccc(F)c2)cc1 (configuration not stated) | – | inconclusive [inhibitor, single point] | – |
| Cc1ccc(NS(=O)(=O)c2ccc3[nH]c4c(c3c2)CCCCCC4)cc1Cl | – | inconclusive [inhibitor, single point] | – |
| COCCCNC(=O)CSc1c2c(nc3ccc(Cl)cc13)CCCC2 | inactive | – | – |
| CCC(C)NC(=O)Cn1c(=O)n(-c2ccc(C)cc2)c(=O)c2ccccc21 (configuration not stated) | – | inconclusive [inhibitor, single point] | – |
| Nc1ncc(S(=O)(=O)NCc2ccc(Cl)cc2)cn1 | – | inconclusive [inhibitor, single point] | – |

| SMILES | outcome | Potency | activity change, negative = inhibition |
| --- | --- | --- | --- |
| Cc1cc(C)cc(OCC(=O)Nc2ccc(-c3nc4ccccc4s3)cc2)c1 | – | inconclusive [inhibitor, single point] | – |
| CCOc1ccc(OCC)c(S(=O)(=O)N2CCN(c3cccc(C)c3C)CC2)c1 | – | inconclusive [inhibitor, partial curve, poor fit] | – |
| COc1cccc(-c2cc(C(=O)Nc3cc(OC)c(OC)c(OC)c3)on2)c1 | – | inconclusive [inhibitor, full curve, poor fit] | – |
| CCOC(=O)c1c(NC(=O)c2ccc(S(=O)(=O)N(CCOC)CCOC)cc2)sc2c1CC(C)(C)NC2(C)C | – | inconclusive [inhibitor, single point] | – |
| O=C(CSc1nc2ccccc2nc1Cc1ccccc1)Nc1ccc2c(c1)OCO2 | – | inconclusive [inhibitor, single point] | – |
| CNC(=O)c1nn(C)c2c1C(C)(C)Cc1cnc(Nc3ccc(N4CCN(C)CC4)cc3)nc1-2 | – | inconclusive [inhibitor, single point] | – |
| CSc1cccc(NC(=O)CN2CCN(Cc3ccccc3C)S2(=O)=O)c1 | – | inconclusive [inhibitor, single point] | – |
| Cc1ccccc1CN1C(=O)C2(c3ccccc31)N(c1ccccc1)C(=O)CS2(=O)=O (configuration not stated) | – | inconclusive [inhibitor, partial curve, poor fit] | – |
| C=CCc1cccc2cc(C(=O)Nc3ccc(F)cc3)c(=O)oc12 | – | inconclusive [inhibitor, single point] | – |
| Oc1ccc(NCc2ccccc2OCc2ccccc2F)cc1 | – | inconclusive [inhibitor, single point] | – |
| CCOC1OC(=O)C[C@H]1NC(=O)[C@@H]1CCCN1C(=O)[C@@H](NC(=O)c1ccc(N)c(Cl)c1)C(C)(C)C (some centres not stated) | – | – | inactive: -23.8% |
| O=C1c2[nH]nc(-c3ccccc3)c2C(c2ccccc2)N1c1cccc(C(F)(F)F)c1 (configuration not stated) | – | inconclusive [inhibitor, single point] | – |
| CCOC(=O)N1CCN(C(=O)c2ccc3c(c2)N(Cc2cc(C)ccc2C)C(=O)c2ccccc2S3=O)CC1 (configuration not stated) | inactive | – | – |
| COc1cccc(-c2ccc3c(N)c(C(=O)c4ccc(Br)cc4)sc3n2)c1 | – | inconclusive [inhibitor, partial curve, poor fit] | – |
| Cc1cccc(CSc2nc(-c3cccs3)ccc2C#N)c1 | – | inconclusive [inhibitor, single point] | – |
| C=CCc1c(C)nc2nc(SCC(=O)Nc3ccc(C)c(C)c3)nn2c1C | – | – | inactive: -23.3% |
| Cc1coc2c(C)c3oc(=O)c(CC(=O)NCCc4ccc(Cl)cc4)c(C)c3cc12 | – | inconclusive [inhibitor, partial curve, poor fit] | – |
| Cc1nnc(SCC(=O)NCc2ccccc2Cl)c2nn(-c3ccccc3)c(C)c12 | – | – | inactive: -12.7% |
| CCN(c1ccccc1)S(=O)(=O)c1ccc(NC(=O)c2nc(S(C)(=O)=O)ncc2Cl)cc1 | – | inconclusive [inhibitor, partial curve, poor fit] | – |
| COc1cccc(CNC(=O)c2ccc3c(c2)sc2nc(-c4cccc(OC)c4)cn23)c1 | – | inconclusive [inhibitor, single point] | – |
| O=C(Cc1ccc(Cl)cc1)Nc1ccc2oc(-c3ccc(F)cc3)nc2c1 | – | – | inactive: -6.65% |

| SMILES | outcome | Potency | activity change, negative = inhibition |
| --- | --- | --- | --- |
| CCOc1ccc(Nc2nc3c(S(=O)(=O)c4ccc(CC)cc4)nnn3c3ccc(Cl)cc23)cc1 | – | – | inactive: -3.8% |
| Cc1ccc(-c2nc3n(n2)C(=O)CC(c2ccc(C)cc2)S3)cc1 (configuration not stated) | – | – | inactive: -16.2% |
| CCCCOC(=O)c1ccc(NC2=NS(=O)(=O)c3ccccc32)cc1 | – | inconclusive [inhibitor, single point] | – |
| O=C(Nc1ccc(Cl)c(Cl)c1)N(Cc1c[nH]c2ccccc12)C1CCCCC1 | inactive | – | – |
| CC(C)CN(CC(C)C)CC(O)Cn1cc(/C=C/C(=O)c2ccccc2)c2ccccc21 (configuration not stated) | – | inconclusive [inhibitor, single point] | – |
| CCOc1ccc(S(=O)(=O)Nc2cccc(-c3ccc(N4CCC(C)CC4)nn3)c2)cc1 | – | inconclusive [inhibitor, single point] | – |
| CCOc1cc(-c2ccc(OC(=O)c3ccccc3)c(OC)c2)cc(=O)c2c(C)oc(C)c12 | – | inconclusive [inhibitor, single point] | – |
| COc1ccc(S(=O)(=O)N2CCC(C(=O)Nc3cc(C(F)(F)F)ccc3Cl)CC2)cc1 | – | inconclusive [inhibitor, single point] | – |
| CCSc1ncc(Cl)c(C(=O)Nc2sc3c(c2C(=O)NCCCOC)CCCC3)n1 | inactive | – | – |
| CC1=C(C(=O)Nc2ccc(Cl)cc2)C(c2ccccc2)n2ncc(C(=O)Nc3ccccc3)c2N1 (configuration not stated) | – | inconclusive [inhibitor, single point] | – |
| Cc1cc(C)c2sc(N3CCN(C(=O)c4ccc(N(C)C)cc4)CC3)nc2c1 | – | – | inactive: -5.21% |
| CCCCN(C)CCNC(=O)c1cc2c(=O)n(C)c3ccccc3c2n1C | – | inconclusive [inhibitor, single point] | – |
| CCN1CCc2c(sc(-n3cccc3)c2C(C)NC(=O)Nc2ccc(Br)cc2)C1 (configuration not stated) | – | inconclusive [inhibitor, single point] | – |
| Cc1ccccc1C(=O)Nc1ccc2nc(N3CCCCC3)cc(C)c2c1 | – | inconclusive [inhibitor, single point] | – |
| CCN1CCN(c2cc(C)c3cc(NC(=O)/C=C/c4ccc(C)cc4)ccc3n2)CC1 | – | inconclusive [inhibitor, full curve, poor fit] | – |
| CC1=C(C(=O)NCc2ccc(Cl)cc2)C2(CCC(C)CC2)OC1=O (configuration not stated) | – | inconclusive [inhibitor, partial curve] | – |
| O=C(NCc1ccccc1)c1ccc2c(c1)N(Cc1ccccc1)C(=O)c1ccccc1S2(=O)=O | – | inconclusive [inhibitor, single point] | – |
| CN(CC(=O)NCc1ccc(F)cc1)S(=O)(=O)c1ccc2[nH]c3c(c2c1)CCCC3 | – | inconclusive [inhibitor, full curve] | – |
| Fc1ccc(C(NCCc2ccccc2)c2nnc(-c3ccccc3Cl)o2)cc1 (configuration not stated) | – | inconclusive [inhibitor, single point] | – |
| CCN(CC)CCCNC(=O)c1ccc(Cn2c(=O)[nH]c3cc(OC)c(OC)cc3c2=O)cc1 | – | inconclusive [inhibitor, single point] | – |
